# In the supplement of paper PMC5919970:
# Structures can show the parent of a compound that is named as a salt. Whole data set: some 2,000 compounds, median “fractional viability relative to vehicle” near 0.91, cut for the lowest 2% near 0.045. The list shows a part of the results.
# System: TYKNU
# Assay: fractional viability relative to vehicle; TYKNU is a high-grade serous ovarian cancer line; higher = less growth inhibition
# Conditions: 72 h
# Summary of the method: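 Drug treatment lasted 72 h, with cells grown at 37 °C in 5% CO2 in RPMI 1640 supplemented with 10% FBS. Beforehand, TYKNU control cells or their lentiCRISPRv2 knockout derivatives had been seeded at 500 cells per well into drug-stamped 384-well plates carrying a ~2100-compound library at 2 or 10 μM, in duplicate. Viability came from Cell Titer Glo luminescence, with averaged duplicate treatment wells normalised to duplicate control wells in the same plate position.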
# [1] = 2uM, genotype: DNM1L knockout (sgDNM1L #1)
# [2] = 2uM, genotype: sgCTRLA1 (non-targeting control)
# [3] = 10uM, genotype: DNM1L knockout (sgDNM1L #1)
# [4] = 10uM, genotype: sgCTRLA1 (non-targeting control)
SMILES,fractional viability [1],fractional viability [2],fractional viability [3],fractional viability [4]
O=C(Nc1ccc([N+](=O)[O-])cc1O)Nc1ccccc1Br,0.258,0.266,0.172,0.109
O=C(c1cncc(Br)c1)N1CCC(N2CCCC2)CC1,0.816,0.901,0.828,0.765
O=c1c(O)c(-c2ccc(O)c(O)c2)oc2cc(O)cc(O)c12 [Quercetin],1.03,1.17,0.869,1.07
O=c1c(O)c(-c2ccc(O)c(O)c2)oc2cc(O)cc(O)c12 [Quercetin Dihydrate],1.01,1.11,0.971,1.17
O=C(O)c1cc(I)ccc1NC(=O)[C@H](Cc1ccccc1)NCc1ccccc1,0.795,0.952,0.918,0.807
CCN1CCN(Cc2ccc(Nc3ncc(F)c(-c4cc(F)c5nc(C)n(C(C)C)c5c4)n3)nc2)CC1,0.289,0.473,0.0303,0.0236
COCCc1ccc(OCC(O)CNC(C)C)cc1 (configuration not stated) [Metoprolol Tartrate],1.03,1.1,0.925,0.923
COc1ccc(CN2CCN(C(c3ccc(F)cc3)c3ccc(F)cc3)CC2)c(OC)c1OC [Lomerizine HCl],1.02,1.12,0.696,1.13
CC(C)Cc1ccc(C(C)C(=O)O)cc1 (configuration not stated) [Ibuprofen],1.03,1.1,0.925,1.03
Nc1ncnc2c1C(=O)N(c1ccc([C@H]3CC[C@H](CC(=O)O)CC3)cc1)CCO2,0.929,0.967,0.819,0.967
CN1CCC(NC(=O)c2cc(-c3c(O)cc(O)cc3Oc3ccc([N+](=O)[O-])cc3)on2)CC1,0.249,0.201,0.275,0.186
Cc1cc(-c2ncc(CC(=O)Nc3ccc(-c4cnccn4)cn3)cc2C)ccn1,0.863,1.1,0.665,0.746
Cc1cnc(C(=O)NCCc2ccc(S(=O)(=O)NC(=O)NC3CCCCC3)cc2)cn1 [Glipizide],0.818,1.13,0.918,0.979
O=C1[C@H](CC[C@H](O)c2ccc(F)cc2)[C@@H](c2ccc(O)cc2)N1c1ccc(F)cc1 [Ezetimibe],0.908,1.06,0.592,0.868
c1cc(-c2cnn3cc(-c4ccc(OCCN5CCCCC5)cc4)cnc23)ccn1 [Dorsomorphin (Compound C)],0.845,0.916,0.552,0.503
COc1ncc(-c2ccc3nccc(-c4ccnnc4)c3c2)cc1NS(=O)(=O)c1ccc(F)cc1F,0.446,0.184,0.0665,0.0352
COc1cc2ncnc(Oc3ccc(CC(=O)Nc4cnn(C(C)C)c4)cc3)c2cc1OC,0.932,1.12,0.916,1.08
CN1CCC(=C2c3ccccc3CCc3sccc32)CC1 [Pizotifen Malate],0.954,1.11,0.806,0.908
CCN(CC)CCOc1ccc(C(=C(Cl)c2ccccc2)c2ccccc2)cc1 [Clomifene citrate],0.751,1.08,0.178,0.479
CCCCCOC(=O)Nc1nc(=O)n([C@@H]2O[C@H](C)[C@@H](O)[C@H]2O)cc1F [Capecitabine],1.08,1.1,0.815,1.02

SMILES,fractional viability [1],fractional viability [2],fractional viability [3],fractional viability [4]
CCCCNc1ccc(C(=O)OCCN(C)C)cc1 [Tetracaine HCl],1.03,1.12,1.03,0.983
O=C1CCc2ccc(OCCCCN3CCN(c4cccc(Cl)c4Cl)CC3)cc2N1 [Aripiprazole],0.859,1.03,0.416,0.572
COc1c2ccoc2cc2oc(=O)ccc12 [Bergapten],0.872,1.13,0.835,1.12
CCCCCCCCCCCC1=C(O)C(=O)C=C(O)C1=O [Embelin],0.857,1.01,0.651,0.992
CNCc1cc(-c2ccccc2F)n(S(=O)(=O)c2cccnc2)c1,0.688,0.996,0.621,0.76
Cc1ccccc1C(OCCN(C)C)c1ccccc1 (configuration not stated) [Orphenadrine Citrate],1.01,1.08,0.829,0.887
O=C1C(O)=C([C@H]2CC[C@H](c3ccc(Cl)cc3)CC2)C(=O)c2ccccc21 [Atovaquone],1.15,1.05,0.875,0.971
Cc1nn(C)c2c1C(c1ccc(C(F)(F)F)cc1)C(C#N)=C(N)O2 (configuration not stated),0.924,1.08,0.886,0.86
OC[C@H]1O[C@@H](c2ccc(Cl)c(Cc3ccc(O[C@H]4CCOC4)cc3)c2)[C@H](O)[C@@H](O)[C@@H]1O,0.8,1.06,0.788,0.819
CN(C)c1cccc(-c2c3c(=O)n(-c4ccccc4Cl)[nH]c3cc(=O)n2C)c1,0.822,1.05,0.865,1.07
COC(=O)C1=C(C)NC(C)=C(C(=O)OCCN(C)Cc2ccccc2)C1c1cccc([N+](=O)[O-])c1 (configuration not stated) [Nicardipine HCl],0.805,1.02,0.564,0.825
Cc1nc(C#Cc2ccnc(Cl)c2)c(C)n1-c1ccc(OC(F)(F)F)cc1,1.11,1.04,0.727,0.974
COCCOc1ccc2c(c1)ncn2-c1ccc2cccc(N3CCC(N)CC3)c2n1,0.892,0.893,0.13,0.139
Cc1cc(Nc2cc(N3CCN(C)CC3)nc(/C=C/c3ccccc3)n2)n[nH]1,0.443,0.472,0.292,0.287
COc1ccc(C2CC(c3ccccc3)=NN2c2ccc(S(N)(=O)=O)cc2)cc1 (configuration not stated),0.821,0.9,0.649,0.695
Cc1cc(-c2ccc(CC(=O)Nc3ccc(-c4cccnc4)cc3)cc2)ccn1,0.912,1.07,0.816,0.942
COC(=O)C1=C(C)NC(C)=C(C(=O)OCC(C)C)C1c1ccccc1[N+](=O)[O-] (configuration not stated) [Nisoldipine],0.984,1.04,0.724,0.852
Oc1cc(O)c(Cl)cn1 [Gimeracil],0.993,1.01,0.966,1.14
COc1ccc2cc(OCC3(C(=O)O)CN(C(=O)c4ccc(F)cc4)C3)ccc2c1,0.822,1.12,0.788,1.11
CC1(C)CNc2cc(NC(=O)c3cccnc3NCc3ccncc3)ccc21 [Motesanib Diphosphate (AMG-706)],1.1,0.974,0.969,0.903

SMILES,fractional viability [1],fractional viability [2],fractional viability [3],fractional viability [4]
CC[C@@H]1/C=C(\C)C[C@H](C)C[C@H](OC)[C@H]2O[C@@](O)(C(=O)C(=O)N3CCCC[C@H]3C(=O)O[C@H](/C(C)=C/[C@@H]3CC[C@@H](O)[C@H](OC)C3)[C@H](C)[C@@H](O)CC1=O)[C@H](C)C[C@@H]2OC [Ascomycin (FK520)],0.544,0.827,0.629,0.607
Cc1ccc(-c2c(-c3nn(C)c4ncnc(N5CC[C@H](N6CCCCC6)C5)c34)cnn2C)cc1,1.02,1.11,0.738,1.18
O=C1OC(CN2CCOCC2)CN1/N=C/c1ccc([N+](=O)[O-])o1 (configuration not stated) [Furaltadone HCl],1.13,1.31,0.995,1.27
CC(C)(C(=O)NCC(F)(F)C(F)(F)F)C(=O)N[C@@H]1C(=O)Nc2ccccc2-c2ccccc21,0.968,1.17,0.899,1.08
Cc1cc(C)c(CNC(=O)c2cc(-c3ccc(N4CCN(C)CC4)nc3)cc3c2c(C)cn3C(C)C)c(=O)[nH]1,0.782,1.03,0.669,0.609
CN(C)CCNC(=O)c1cccn2c(=O)c3cc4ccccc4cc3nc12,0.389,0.417,0.107,0.0609
CCOc1cc(N)c(Cl)cc1C(=O)NCC1CN(Cc2ccc(F)cc2)CCO1 (configuration not stated) [Mosapride Citrate],1.01,0.954,0.911,0.912
COC(=O)[C@H](CCSC)NC(=O)c1ccc(NC[C@@H](N)CS)cc1-c1ccccc1,0.719,0.86,0.62,0.852
Cc1cccc(Nc2ccccc2C(=O)O)c1C [Mefenamic Acid],0.904,1.22,0.702,1.12
CCC(C)n1ncn(-c2ccc(N3CCN(c4ccc(OCC5COC(Cn6cncn6)(c6ccc(Cl)cc6Cl)O5)cc4)CC3)cc2)c1=O (configuration not stated) [Itraconazole],1.02,1.07,0.761,0.994
C[C@H]1[C@H](OC(=O)CCC(=O)O)O[C@@H]2O[C@@]3(C)CC[C@H]4[C@H](C)CC[C@@H]1[C@@]24OO3 [Artesunate],0.491,0.484,0.294,0.284
C=CCn1c(=O)c2cnc(Nc3ccc(N4CCN(C)CC4)cc3)nc2n1-c1cccc(C(C)(C)O)n1,0.128,0.121,0.202,0.0791
Clc1ccc(C(Cn2ccnc2)OCc2csc3c(Cl)cccc23)c(Cl)c1 (configuration not stated) [Sertaconazole nitrate],0.866,1.16,0.544,0.858
CC1(C)S[C@@H]2[C@H](NC(=O)Cc3ccccc3)C(=O)N2[C@H]1C(=O)O [Penicillin G Sodium],1.05,1.18,0.704,0.99
CCCCc1nc(Cl)c(CO)n1Cc1ccc(-c2ccccc2-c2nnn[nH]2)cc1 [Losartan Potassium (DuP 753)],0.988,1.07,0.956,1.09
O=C(Nc1cccc2cccnc12)c1ccc(N2C(=O)[C@@H]3[C@H](C2=O)[C@@H]2C=C[C@H]3C2)cc1 [IWR-1-endo],0.84,1.18,0.723,0.945
O=C1CCC(N2C(=O)c3ccccc3C2=O)C(=O)N1 (configuration not stated) [Thalidomide],1.08,1.04,0.934,1.21
C[C@H](CCC(=O)NCCS(=O)(=O)O)[C@H]1CC[C@H]2[C@@H]3[C@@H](O)C[C@@H]4C[C@H](O)CC[C@]4(C)[C@H]3CC[C@]12C [Sodium Tauroursodeoxycholate (TUDC)],0.814,0.961,0.874,0.803
